Assay results: PubChem BioAssay AID485364 (National Center for Advancing Translational Sciences (NCATS), 2010)
In all, about 360,000 compounds went through this assay and about 11,000 (3.1%) were called active. Inconclusive means that the source gave no clear call. Such entries were picked first, then a sample of the others. Calls follow the shape of the dose curve; as a rule, active = well fitted inhibition curve with a large enough effect; inconclusive = small, poorly fitted or top-dose-only effect; inactive = no such curve, though single readings can be large or run the other way. Potencies of inconclusive entries are left out as doubtful fits.

Each molecule was assayed against Schistosoma mansoni thioredoxin glutathione reductase (TGR) (UniProt Q962Y6) (assay: qHTS Assay for the Inhibitors of Schistosoma Mansoni Peroxiredoxins). Conditions: purified TGR, DTNB reduction, TNB absorbance 405 nm; activity change, negative = inhibition: at 114 µM (top of the series).
Method in brief: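 First, TGR (20 nM dispensed) and NADPH were mixed with compound. Second, a 15 min room-temperature incubation followed. Third, further NADPH and then DTNB were added to start the reaction. Finally, TNB absorbance was monitored kinetically.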
% is scaled to controls: 0 for no effect and ±100 for the full control effect; potency is read from the fitted curve at half-maximal effect; tags tell the direction and shape of the fitted curve.
Also: nearly all actives have a fitted effect of over 60% in size.

| Compound | Potency | activity change, negative = inhibition |
| --- | --- | --- |
| COc1ccc(NS(=O)(=O)c2cccc(C(=O)NC3CCN(Cc4ccccc4)CC3)c2)cc1 | inconclusive [inhibitor, partial curve, poor fit] | – |
| Cc1cc(C#Cc2c(-c3ccccc3)n(C)c3ccccc23)ccc1F | inconclusive [inhibitor, full curve] | – |
| CCOc1ccc(-n2c(O)c(C=NCCCn3ccnc3)c(=O)[nH]c2=O)cc1 | inconclusive [inhibitor, full curve, poor fit] | – |
| c1ccc2sc(SN3CCOCC3)nc2c1 | inconclusive [inhibitor, partial curve] | – |
| CCOC(=O)C1CCN(C(=O)C2CCN(S(=O)(=O)c3cccc4cccnc34)CC2)CC1 | inconclusive [inhibitor, full curve, poor fit] | – |
| O=C(Cc1cccc(C(F)(F)F)c1)Nc1ccc(S(=O)(=O)N2CCCC2)cc1 | inconclusive [inhibitor, partial curve] | – |
| COC(=O)c1c(C(=O)OC)c(-c2ccc(OC)cc2)n2c1CS(=O)(=O)C2 | active: 50.1 µM | – |
| O=c1oc2ccc([N+](=O)[O-])cc2c(N2CCOCC2)c1[N+](=O)[O-] | inconclusive [inhibitor, full curve] | – |
| O=c1[nH]nc(SCc2ccccc2)n1C1CC2C=CC1C2 (stereo not given) | inconclusive [inhibitor, single point] | – |
| O=C1CC(N2CCC(C(=O)N3CCCCC3)CC2)C(=O)N1 (stereo not given) | active: 31.6 µM | – |
| O=C1Nc2ccccc2C1C(C[N+](=O)[O-])c1ccccc1 (stereo not given) | inconclusive [inhibitor, partial curve] | – |
| O=C(O)COc1ccc(/C=N/NC(=O)c2ccc(-c3csc(Nc4ccc(Cl)cc4)n3)cc2)cc1 | – | inactive: -2.99% |
| CCN1C(=O)C2(C(C(=O)c3ccc(C)o3)=C(O)C(=O)N2CCCN(C)C)c2ccccc21 (stereo not given) | active: 31.6 µM | – |
| CN(C)S(=O)(=O)c1ccc(N2CCCC2)c(C(=O)NCC2COc3ccccc3O2)c1 (stereo not given) | – | inactive: 2.28% |
| CCOC(=O)C(=NC1CCS(=O)(=O)C1)NNc1ccccc1Cl (stereo not given) | inconclusive [inhibitor, single point] | – |
| c1cncc(CNc2ccc3c(c2)OCO3)c1 | active: 15.8 µM | – |
| Cc1nn(-c2ccc(N3CCCCC3)nn2)c(C)c1CCC(=O)Nc1ccccc1F | inconclusive [inhibitor, single point] | – |
| COc1ccccc1CN(CC(=O)NCc1ccco1)C(=O)CNS(=O)(=O)c1ccccc1 | active: 50.1 µM | – |

| Compound | Potency | activity change, negative = inhibition |
| --- | --- | --- |
| COc1ccc(C(=O)c2sc(Nc3ccccc3)nc2N)cc1OC | inconclusive [inhibitor, partial curve, poor fit] | – |
| Cn1cccc1Cc1nnc(SCC(=O)NCC2CCCO2)n1-c1ccc(F)cc1 (stereo not given) | inconclusive [inhibitor, partial curve] | – |
| CC(C)OCCCNc1ncc2c(n1)CC(c1ccccc1)CC2=O (stereo not given) | inconclusive [inhibitor, partial curve] | – |
| COc1ccc(S(=O)(=O)NCCc2cn3nc(C)c(C)nc3n2)cc1C | active: 44.7 µM | – |
| CCCC12CN(C(=O)c3ccc([N+](=O)[O-])cc3)CC(C)(CN(C(=O)c3ccc([N+](=O)[O-])cc3)C1)C2=O | – | inactive: 1.77% |
| CC(=NCCCN1CCCCC1)c1c(O)n(Cc2ccccc2)c(=O)[nH]c1=O | inconclusive [inhibitor, full curve] | – |
| COc1ccc(CN2CN=C(Nc3nc4ccccc4s3)NC2)cc1 | – | inactive: 2.88% |
| S=C(Nc1ccc(Cl)c(Cl)c1)NN1CCOCC1 | inconclusive [inhibitor, partial curve] | – |
| Cc1ccc(C)c2sc(N3CCN(C(=O)c4ccco4)CC3)nc12 | active: 56.2 µM | – |
| N=c1c(S(=O)(=O)c2ccc(Cl)cc2)cc2c(=O)n3ccccc3nc2n1Cc1ccco1 | inconclusive [inhibitor, partial curve] | – |
| CCn1nc(C)c(CNC(=O)CCc2nnc(Cc3c[nH]c4ccccc34)o2)c1C | inconclusive [inhibitor, partial curve] | – |
| CCOC(=O)N1CCN(c2c(Nc3ccc4c(c3)OCCO4)c(=O)c2=O)CC1 | inconclusive [inhibitor, full curve, poor fit] | – |
| O=C(Nc1nc(-c2ccccn2)cs1)c1cccc(S(=O)(=O)N2CCOCC2)c1 | inconclusive [inhibitor, partial curve] | – |
| Nc1c(Cl)cc(C2=NCCn3c2c2ccc([N+](=O)[O-])cc2[n+]3[O-])cc1Cl | active: 39.8 µM | – |
| COc1ccc2c(c1)c(C(O)CN1CCC3(CC1)OCCO3)c(C)n2C (stereo not given) | active: 25.1 µM | – |
| Cc1cccc(-c2nc(CS(=O)CC(=O)NCCc3ccc(Cl)cc3)c(C)o2)c1 (stereo not given) | inconclusive [inhibitor, partial curve] | – |
| CSc1nnc(NC(=O)c2nc(S(=O)(=O)Cc3ccc(C)cc3)ncc2Cl)s1 | active: 3.16 µM | – |
